Test results: the supplement of paper PMC3334620
Whole data set: some 33,000 sequences, median “E-score (-0.5 to 0.5)” near -0.035, cut for the highest 2% near 0.34. This is one part of the list.

Molecular target: T1, Mot3 (UniProt P54785)
T1 sequence: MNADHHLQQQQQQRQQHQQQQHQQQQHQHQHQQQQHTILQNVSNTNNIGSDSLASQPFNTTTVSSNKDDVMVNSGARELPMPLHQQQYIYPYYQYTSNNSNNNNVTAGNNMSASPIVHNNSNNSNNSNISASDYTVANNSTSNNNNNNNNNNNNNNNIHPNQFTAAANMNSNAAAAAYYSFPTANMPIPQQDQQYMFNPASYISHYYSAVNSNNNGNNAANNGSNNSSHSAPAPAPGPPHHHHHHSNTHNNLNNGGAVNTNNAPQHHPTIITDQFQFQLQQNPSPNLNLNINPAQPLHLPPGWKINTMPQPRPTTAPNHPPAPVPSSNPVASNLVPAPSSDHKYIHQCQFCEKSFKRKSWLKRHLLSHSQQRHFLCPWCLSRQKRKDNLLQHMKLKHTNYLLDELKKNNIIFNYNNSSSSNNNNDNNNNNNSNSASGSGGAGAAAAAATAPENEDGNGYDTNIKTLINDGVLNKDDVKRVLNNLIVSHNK
Experiment: PBM E-score (8-mer binding enrichment) (E-score (-0.5 to 0.5)); higher = stronger / more preferred TF binding; most listed sequences are background and not binding sites
Conditions: protein concentration: 200 nM; construct: GST-full length
How it was run: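 For each ungapped eight-base word taken together with its reverse complement, the Universal PBM Analysis Suite assigned an E-score. Binding data came from GST-tagged yeast transcription factors, applied at about 100-200 nM, on universal all-10-mer Agilent arrays made double-stranded by primer extension. Fluorescent anti-GST marked bound protein, and scans were normalised with masliner.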

Row | Sequence | PBM E-score
1 | GAGACCCA | -0.284
2 | AACTAAGC | 0.189
3 | GAAAATAA | 0.175
4 | CATTGCTC | -0.101
5 | CAGTCTTA | -0.0648
6 | GGCCCGCC | -0.234
7 | GTTCATTA | 0.126
8 | GTTTAGAA | 0.168
9 | AACTCTGC | -0.108
10 | GGAAACTA | -0.0618
11 | ATTTCGCG | 0.0566
12 | CTCCGAGA | -0.144
13 | TACCTCTA | 0.0212
14 | CAGGGAGA | -0.25
15 | ACGACGGA | 0.0268
16 | AAGTTGGG | -0.11
17 | TCATGCGA | -0.0918
18 | ATTTCAAC | 0.168
19 | CGAGGCAG | -0.0696
20 | CGTGGTCC | -0.13
21 | CCTATGAC | -0.00435
22 | CGATGTCC | -0.154
23 | ATCAGTGA | -0.0721
24 | GGAGTTAA | -0.03

Row | Sequence | PBM E-score
25 | AAAATGCT | 0.0487
26 | AAGTCGAG | -0.0916
27 | CCACAGGG | -0.161
28 | CTGGCGAA | -0.197
29 | AGTTGAGC | -0.0105
30 | AGAAGGTA | 0.347
31 | GCTCCGGA | -0.11
32 | AGCAACAG | 0.0442
33 | CGCGTCTA | 0.0388
34 | TGCTTACA | 0.214
35 | ACGTATTG | 0.131
36 | GCACGGAC | 0.0668
37 | ACGGTCTA | -0.101
38 | AGGTTCTA | 0.00687
39 | ATCCACGA | -0.047
40 | CAAGCAGC | -0.0458
41 | GAGGGGGC | -0.248
42 | ATACGCCC | -0.163
43 | CATTACTA | 0.246
44 | ATGTTCAG | 0.178
45 | ATAAGAAG | -0.0771
46 | ACAAGAGT | 0.173
47 | CACTGTAA | 0.167
48 | CTGACACA | 0.0882

Row | Sequence | PBM E-score
49 | AATAAAGC | -0.0871
50 | CAGTTCGC | -0.109
51 | GAAATCAA | -0.0948
52 | CGATAGAA | -0.0792
53 | CTTGGCGC | -0.126
54 | CATATTGG | -0.0646
55 | ACGGATCG | -0.124
56 | ATGAGACG | -0.0631
57 | TGAGCCCA | -0.223
58 | ACAGAGGA | 0.0882
59 | AGACCCCA | -0.253
60 | ACCGGAGG | -0.0907
61 | GATCAGCA | -0.194
62 | TAAATCAA | 0.0876
63 | AGACCCGC | -0.00762
64 | AGGATCGG | -0.0635
65 | AGGAATAT | -0.00249
66 | GGCGCCCC | -0.0368
67 | CGAGACGA | -0.287
68 | ATTAGGCA | 0.472
69 | CCTATCAC | 0.145
70 | GCTTGCAC | -0.222
71 | AAACCGGC | -0.0772
72 | AAATCACT | 0.113

Row | Sequence | PBM E-score
73 | ACGCTCCT | 0.0454
74 | CTGTCTCC | -0.116
75 | TACAGGTA | 0.393
76 | ATGCCATG | 0.0256
77 | CATCGCGG | -0.202
78 | AGCGCATC | -0.138
79 | TGCTGAAA | 0.0454
80 | AACCCTCA | -0.125
81 | GCGCTAGC | -0.149
82 | AGCGGCCG | -0.264
83 | CGGCTTCC | -0.253
84 | GGCCGACA | -0.252
85 | GGACAGCC | -0.363
86 | CGCAGCCC | -0.265
87 | GCAAGACC | -0.0597
88 | CCTTCGGC | -0.128
89 | ATCTGGAG | -0.107
90 | TAGGTTGA | 0.0234
91 | CCGTGTGC | 0.037
92 | ATCAATCA | 0.0514
93 | CGGCTGAA | -0.0999
94 | CACATTGG | -0.0902
